This passage reports switch fluorescence ratio results from the supplement of paper PMC10126150.

The data set has as its system ATP. Put plainly: switch fluorescence ratio, 500 uM ATP over buffer (Cy3 cluster intensity, sum of 5 cycles each) (fold (ratio)); higher = stronger signal-on switching upon ATP binding; sequences stand for … in TCGTCGGCAGCGTCAGATGTGTATAAGAGACAGTTTTTTTTTTTTTTTTTTTTTTTTT…TC. The note with it: aptamer strand: ATP DNA aptamer (quencher-CACCTGGGGGAGTATTGCGGAGGAAGG + anchor), 100 nM annealed; ATP concentration: 500 uM; one replicate. The gist of the method: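 Five buffer/ATP imaging cycles were run on Cy3-labelled switching-strand clusters on a modified Illumina MiSeq flow-cell, with NaOH stripping and re-annealing between cycles. In each cycle, clusters annealed to 100 nM quencher-labelled ATP aptamer were imaged in selection buffer, then after 15 min with 500 uM ATP at 22 °C. Per cluster, the fluorescence ratio is summed target-cycle over summed buffer-cycle Cy3 intensity, averaged per switch-domain sequence. Only clusters within 100-1000 RFU were kept.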

Values marked as one replicate rest on one cluster of the flow cell; about a third of the high ones do not repeat.
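Also: ATP exposure 15 min at 22 °C before imaging.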

For the sequence ACGAGTTTC, the switch fluorescence ratio amounted to 1.01. On to TCCGGGCGGG, for which the switch fluorescence ratio was 1.01. The same measure for AGGGTCAATT: 1.06; for ACTATGAGCA: 1.1. The same measure for ACAGCTCCTC: 1.04; for AATGGAGGAA: 1.06; for ACCAGGGTCT: 1.05. On to CGGGAGCCTC, for which the switch fluorescence ratio was 1.07. For GTCAGTTACG the value was 1.08; for TTCAAAGGAA, 0.975. For AAGCTACACT the value was 1.06. For TAAACGTAAT the value was 1.22. For AAGGCTTAAA, the switch fluorescence ratio was found to be 0.967. Consider GTGTACGGCG, for which the switch fluorescence ratio turned out to be 1.04.

Consider TTAGACAGTA, for which the switch fluorescence ratio worked out at 1.03. Regarding AGTCTTCAA, the switch fluorescence ratio is 1.02. For the sequence CGCTTTAAAA, the switch fluorescence ratio worked out at 0.945. The same measure for AAGCGTTC: 1.03; for TTTACTCGG: 1.02; for TCTTAGCGTA: 0.987.

For CCACGGTTAT, the switch fluorescence ratio was determined as 1.2. For the sequence TTCTAACATA, the switch fluorescence ratio came out at 1.05. The same measure for AACCAAAGAT: 0.989; for CCGATTTTCG: 1.02; for TATTAGGGCC: 0.969. The same measure for ACGAACGTAC: 1.66. The same measure for CGCCAATCCT: 1.34; for AACAACCGGC: 1.05. On to GGGGAACGAT, for which the switch fluorescence ratio was found to be 0.995. As for ACTGGGCTAT, the switch fluorescence ratio stood at 1.04. The same measure for GTACCTGTGC: 1.06; for CGATGGTGC: 1.04; for GGAGGGATGA: 1.01. The same measure for CATTAGACG: 0.973; for CCTGCACGCG: 1.09; for ATGAGTAACT: 0.944.

For TTGCAATCTT, the switch fluorescence ratio was 1.11. With ACGTATTGGG, the switch fluorescence ratio turned out to be 1.12. For AGACATCCG the value was 1.08; for ACGAAGGCGA, 1.03.

With TCCACAATTC, the switch fluorescence ratio came out at 2.61. For GGTGGTTTTA the value was 1.02; for GACAGTAGAG, 1.08; for GTAGAAATCG, 1.04.

With CAACGTTCGA, the switch fluorescence ratio worked out at 1. Regarding CCCAACAACA, the switch fluorescence ratio came out at 1.01. For ATAGGCCAAT the value was 0.996; for CTGAGTAATG, 1.14. Consider GGGATGCATA, for which the switch fluorescence ratio is 0.998.

For the sequence CCTTCGGCGT, the switch fluorescence ratio turned out to be 1. For GTAATATGCT the value was 1.01. ATTAATTGGT: the switch fluorescence ratio was 0.975.

Regarding TGGGACGGAC, the switch fluorescence ratio stood at 1.01.

Take GATGTGCTGG: the switch fluorescence ratio was 0.958.

In the case of CCTATTTGCA, the switch fluorescence ratio was 1.14. For GTTTCAGTGG the value was 0.968; for GAGGACTGTG, 1.21. The same measure for TACTTGAGCC: 0.994; for TAGTAGCTAG: 0.985. The same measure for TAAAAGATG: 0.974. For GGTCAGTCGC, the switch fluorescence ratio was 0.991. The same measure for TCGACCGTAT: 0.968.

As for CCTTGCACA, the switch fluorescence ratio is 3.14.

With GGGGTGCACC, the switch fluorescence ratio turned out to be 1.

Regarding ACATGAGATC, the switch fluorescence ratio came to 1.09.

With GGGTCATAAT, the switch fluorescence ratio was 0.98.

As for ACTCGTTGGC, the switch fluorescence ratio was 1.

As for ATATTCCATT, the switch fluorescence ratio came out at 0.974. The same measure for TTGCGAACGC: 1.02; for AGAGGAACGT: 0.997; for GCTTGGCACG: 1.01. For TGAAGAGCTG the value was 1.02; for AAGGGATTC, 0.963; for GCTCACGGGC, 1.09. With GCTACTTCTG, the switch fluorescence ratio is 0.998.

As to CAATTATAAC, the switch fluorescence ratio came to 1.04.

For the sequence TGCCTGGGGT, the switch fluorescence ratio came out at 1.04.

Take GGGATGTAGC: the switch fluorescence ratio is 1.05.

For CTCCTAAGAT, the switch fluorescence ratio amounted to 1.15.
